# Where a name gives a salt, the structure may show the parent alone. Read-outs that look alike come from different tables or passages of the source.
# Tested on: FXR regulated genes (SHP, CYP7α1, SREPB1c, FAS, BSEP) in HepG2 cells
# [1] = listed as Compound 9, ammonium salt
structure (smiles),measurement,setting,value
"CC[C@H]1[C@@H](O)C2C3CCC(C(C)CCOS(=O)(=O)O)[C@@]3(C)CCC2[C@@]2(C)CC[C@@H](O)C[C@@H]12 (stereo partly drawn) [UPF-987, 3α,7α,23-trihydroxy-6α-ethyl-24-nor-5β-cholan-23-sulphate triethyl ammonium salt]",Effect on BSEP expression,,potent inducer of
same,Effect on SHP expression,,potent inducer of
same,Effect on Cyp7A1 expression,ammonium salt,inhibitor of
same,Effect on FAS mRNA expression,ammonium salt,potent inhibition
same,BSEP mRNA induction,[1],2 fold
same,Effect on Cyp7A1 expression,[1],potently suppressed
same,Effect on FAS mRNA expression,[1],potently suppressed
same,Effect on SREBP-1c mRNA expression,[1],potently suppressed
same,SHP mRNA induction,[1],2 fold
